Experimental data reported in article PMC12136788.
The list shows a part of the results.

T1: UNK ZnF1-3 (human, UniProt Q9C0B0 31-174)
T1 sequence: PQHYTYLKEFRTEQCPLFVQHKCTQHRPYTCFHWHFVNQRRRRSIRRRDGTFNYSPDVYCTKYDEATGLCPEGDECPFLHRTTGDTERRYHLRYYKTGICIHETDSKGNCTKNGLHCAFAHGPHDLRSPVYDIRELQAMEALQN

B1: 42835553_42839370_121_3pUTR_ENSG00000132823_ENST00000255174|human|control|control (ssRNA)
RNA: GGGAGUUCUACAGUCCGACGAUCGUCUGUAGACUCUCCUCCUCUCCAUCCUUGGCUUCGGAUUUCAUUGUGCAAGUUUUUACACUACUUAUCGAUGUUCCUGUUUACACUCCUCGCAGCUGGGACGCUCCGGUGAUGCGGGGCCAACAGAGGAUUGAGCAUCA
B2: chr16:94690093:94690094:+_ENSMUSG00000040785_ENSMUST00000117648|mus_hu|mus_mus_mus_hu_True|38_48 (ssRNA)
RNA: GGGAGUUCUACAGUCCGACGAUCGGGCUGGGAUGACGGACACACAGCCUCGAUUCCAGGGGGAAAAAGUCUUAGUCGAUACUAAUUUAAAAAGUAUUUUAUAAUUGGAAAAUCAGAUUACAUCUAUAAAAGAUGAAAAGCAAACAACAGAGGAUUGAGCAUCA
B3: chr11:44378942:44378943:+_ENSMUSG00000019189_ENSMUST00000019333|mus_hu|motif|central (ssRNA)
RNA: GGGAGUUCUACAGUCCGACGAUCUUUAAAUUUAUUAAGACAUUCAGCUAUGUCUGUCAGUCUACAUCCAAAUUUGCGGCGGAAAAUAAAAUAAAGUCACAUCCCACAUUAGGAAUACCGAGGUCUGAAAAACACUUUUUGAGCCAACAGAGGAUUGAGCAUCA
B4: chrX:101971874:101971875:+_ENSG00000158301_ENST00000332262|hu_hu|motif|central (ssRNA)
RNA: GGGAGUUCUACAGUCCGACGAUCCAUAGUGAGGUGUCUAAGCAUCCUUAUUCCAGUCAGCUGCUCAAGGGAAUCCACACGGUGUGCAAGGGUUUCCUCACACACUUGACAUAUGAAUGUCUCAAUCAUGUUUAGAUUUGGAUACAACAGAGGAUUGAGCAUCA
B5: chr12:21788615:21788616:-_ENSG00000111716_ENST00000350669|hu_mus|FALSE|FALSE (ssRNA)
RNA: GGGAGUUCUACAGUCCGACGAUCCUGAUUGAUGACGCUGGUCAGCCCCCGAGCAUUGAGGAUGCACGGGAGACUGAGGAAGACUUCAUUCUCAAUGCCGUACAUUCCCUUCACCAUGGUAGACACGGGGUGAAUCCGGGAGAGCAACAGAGGAUUGAGCAUCA
B6: chr1:39494447:39494448:+_ENSG00000168653_ENST00000372967|hu_mus|hu_hu_hu_mus_False|18_78 (ssRNA)
RNA: GGGAGUUCUACAGUCCGACGAUCGCACCGAGCGGCGUUCUUAUAGGGCUGUUCUGCACUCUGGAUUAUAAAGUGCCGGUCCAGGCUGAUGCCCAGCUUUUUCUGUAUGUCAAGGAAAGGCAUGGCCCUGCAGUGCCCUUGUCACAACAGAGGAUUGAGCAUCA
B7: chr7:44244176:44244177:+_ENSG00000106636_ENST00000223369|hu_mus|hu_hu_hu_mus_False|18_98 (ssRNA)
RNA: GGGAGUUCUACAGUCCGACGAUCACUGUCGCUCCGGACGUAGACGUGGCAAAGAUACUCUUGUUCUUUGACAGAAGCUCUGCUGCCUUUCCCCGAGCGUUCCACAAUCAGUUGACUCGUGAAGGUCAUGAAUUCCUGCACACUCAACAGAGGAUUGAGCAUCA
B8: chr2:216981417:216981418:+_ENSG00000079246_ENST00000392132|hu_hu|hu_hu_hu_mus_True|18_108 (ssRNA)
RNA: GGGAGUUCUACAGUCCGACGAUCCUGAUACUGAUCCUUGCCAGCAAGGGCAUUAUCAGUGCCAUCUGUGCCAUAGAGGACUAACGCAAUCUCAUCUUUGCUCUCCGAAAAUACCUGUCGCUGUACAAACAUAGUCAUCACUUUCAACAGAGGAUUGAGCAUCA
B9: chr5:32599118:32599119:+_ENSG00000113387_ENST00000502897|hu_mus|motif|central (ssRNA)
RNA: GGGAGUUCUACAGUCCGACGAUCAGAAAUACCUUUUCUUCCUGGUUUCAUUUCACCUUCUGAAUCCAUCCAAUAUUCUCGGAUAUCAAUUAGAAUUUUUCCUUUGAAGUCCCGAACACUGACAUAUCUCAUCUUUCCAAUCUGCAACAGAGGAUUGAGCAUCA
B10: chr7:56126341:56126342:+_ENSG00000146731_ENST00000540286|hu_mus|hu_hu_hu_mus_True|78_108 (ssRNA)
RNA: GGGAGUUCUACAGUCCGACGAUCCAUAUUUCUCCUUUUGGCUCUGCGCAGAGCUACUAUGCCUUCUUUCGCAAGGGCAUCUAAGGAAAAGGGGUCAAUCCCCUUUUGAUUAAUAACGACAAAUCCUUUAUCUGAGUCACCACACAACAGAGGAUUGAGCAUCA
B11: 96689512_96691227_115_3pUTR_ENSMUSG00000038615_ENSMUST00000081775|mouse|control|control (ssRNA)
RNA: GGGAGUUCUACAGUCCGACGAUCUUACCAGGGGGGUUUCCAGAGAACCCCGCUGCUGAGGUCACAGUCUGUCGCUGCCGCCACAGCAGGCCCUCAGCCCAAGUCCCGGCCUCGCCACCGCCGCCGUCGCCGCCACCUCCGGCCCAACAGAGGAUUGAGCAUCA
B12: chr16:42174308:42174309:+_ENSMUSG00000061080_ENSMUST00000099761|mus_hu|motif|central (ssRNA)
RNA: GGGAGUUCUACAGUCCGACGAUCUAUUCUGUGUGACGCAUUUUUGUGUGUUUUUUAAAUUAUUUUUAAAUUUUUAUUCGGUUAACAUUUGCUGAGAAGGCAGAGCAGAGAUGCUGCCAGCAGCCACAGUGGUACGGCCAGACUCAACAGAGGAUUGAGCAUCA
B13: chr11:77336104:77336105:-_ENSG00000074201_ENST00000525064|hu_mus|hu_hu_hu_mus_False|28_58 (ssRNA)
RNA: GGGAGUUCUACAGUCCGACGAUCCUCACACAUUGCUGUGAACAUCGCCUCCAAUGCUGACUUAUCACUGGGCACAAAUCUAAAUUCAGAAAUGGGUUCAACAUCAUCAUCACUGUCCUCAUCUUCAUCAGAGAGAGGUUCUUUCAACAGAGGAUUGAGCAUCA
B14: 140542959_140548134_232_3pUTR_ENSMUSG00000036622_ENSMUST00000037055|mouse|control|control (ssRNA)
RNA: GGGAGUUCUACAGUCCGACGAUCGAAGCUGAGGAGCUGAGGGGAUCGAUUGACGUCCCUGUCGUCAGGGUCCCAUAGCUGGGGGGCGUGCUGCCCAUGAGCAGGCUGCUGUCUGCGCUCAUUUCGGCUCCUCGCGCUCAUCGCCAACAGAGGAUUGAGCAUCA

The binders below were run against T1, UNK ZnF1-3 (assay: nsRBNS (natural sequence RNA bind-n-seq); RBNS binding buffer (assumed for nsRBNS): 25 mM Tris pH 7.5, 150 mM KCl, 3 mM MgCl2, 0.01% Triton X-100, 500 ug/ml BSA, 20 U/ml SUPERase-In, 4 C; UNK is unkempt and MSI1 is Musashi-1; names of the RNAs are library labels; protein concentration not given here; high values mean tight binding).
Work on B1 yielded a binding signal of 0.558 enrichment R.
B2 showed a binding signal of 1.32 enrichment R.
B3 was tested, and the binding signal was 1.15 enrichment R.
With B4 the binding signal was 0.755 enrichment R.
In the case of B5, the binding signal is reported as 0.617 enrichment R.
B6 showed a binding signal of 0.793 enrichment R.
Binder B7 has a binding signal of 0.614 enrichment R.
Work on B8 yielded a binding signal of 0.852 enrichment R.
For B9, the binding signal was 0.591 enrichment R.
B10 was tested, and the binding signal was 0.62 enrichment R.
For B11, the binding signal was 0.741 enrichment R.
Work on B12 yielded a binding signal of 1.96 enrichment R.
B13 showed a binding signal of 1.11 enrichment R.
In the case of B14, the binding signal is reported as 0.437 enrichment R.
